Test [1] has as its target T1, Recombinant human transglutaminase 2 (TG2), Sf9-produced (human), P21980.
T1 chain: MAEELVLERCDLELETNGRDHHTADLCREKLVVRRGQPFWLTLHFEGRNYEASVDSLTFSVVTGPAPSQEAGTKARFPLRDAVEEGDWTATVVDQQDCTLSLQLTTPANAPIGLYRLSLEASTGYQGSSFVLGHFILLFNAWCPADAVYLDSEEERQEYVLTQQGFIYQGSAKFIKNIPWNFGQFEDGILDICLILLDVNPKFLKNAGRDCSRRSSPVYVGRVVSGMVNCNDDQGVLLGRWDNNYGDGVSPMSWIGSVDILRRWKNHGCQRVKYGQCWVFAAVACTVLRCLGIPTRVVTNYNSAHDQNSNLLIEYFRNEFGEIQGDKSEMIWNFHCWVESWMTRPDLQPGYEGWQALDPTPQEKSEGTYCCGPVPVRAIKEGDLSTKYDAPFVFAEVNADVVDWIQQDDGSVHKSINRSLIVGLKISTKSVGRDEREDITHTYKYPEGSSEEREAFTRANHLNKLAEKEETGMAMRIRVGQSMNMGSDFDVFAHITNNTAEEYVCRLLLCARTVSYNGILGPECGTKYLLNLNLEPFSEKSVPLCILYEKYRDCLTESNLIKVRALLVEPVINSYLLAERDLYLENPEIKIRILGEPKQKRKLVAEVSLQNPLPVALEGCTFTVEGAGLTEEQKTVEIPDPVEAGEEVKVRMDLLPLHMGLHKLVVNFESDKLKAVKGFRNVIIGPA
Briefly: cross-linking; enzymatic self-crosslinking by TG2's own transglutaminase activity; 5 mM (or 1 mM) CaCl2, 37°C, TBS pH 7.4 (50 mM Tris HCl, 150 mM NaCl); products resolved by 4-20% gradient SDS-PAGE, Coomassie; both purified. Conditions: remark: other sources report otherwise.

In test [2] the target is T1, Recombinant human transglutaminase 2 …. As to the kind of experiment: cross-linking; BS3 (0.5 mM) capture of non-covalent complexes; TG2 pre-incubated without effectors (no CaCl2) for 30 min at 37°C in 20 mM HEPES pH 7.5, 150 mM NaCl; SDS-PAGE; both purified. Conditions: remark: other sources report otherwise.
The target of test [3] is Inactive, inhibitor-bound TG2 produced in E. coli (TG2-DP3-3) (human) (UniProt P21980). As to the kind of experiment: dynamic light scattering; 0.2 mg/ml inhibitor-bound protein in 20 mM Tris pH 7.2, 150 mM NaCl with 1 mM EDTA, 37°C; both purified.

These are yes or no findings as the source states them, for the method shown. Some entries that bind do so weakly or less than the wild type.

B1: Recombinant human transglutaminase 2 (TG2), Sf9-produced, P21980 1-687 (enzyme)
chain: MAEELVLERCDLELETNGRDHHTADLCREKLVVRRGQPFWLTLHFEGRNYEASVDSLTFSVVTGPAPSQEAGTKARFPLRDAVEEGDWTATVVDQQDCTLSLQLTTPANAPIGLYRLSLEASTGYQGSSFVLGHFILLFNAWCPADAVYLDSEEERQEYVLTQQGFIYQGSAKFIKNIPWNFGQFEDGILDICLILLDVNPKFLKNAGRDCSRRSSPVYVGRVVSGMVNCNDDQGVLLGRWDNNYGDGVSPMSWIGSVDILRRWKNHGCQRVKYGQCWVFAAVACTVLRCLGIPTRVVTNYNSAHDQNSNLLIEYFRNEFGEIQGDKSEMIWNFHCWVESWMTRPDLQPGYEGWQALDPTPQEKSEGTYCCGPVPVRAIKEGDLSTKYDAPFVFAEVNADVVDWIQQDDGSVHKSINRSLIVGLKISTKSVGRDEREDITHTYKYPEGSSEEREAFTRANHLNKLAEKEETGMAMRIRVGQSMNMGSDFDVFAHITNNTAEEYVCRLLLCARTVSYNGILGPECGTKYLLNLNLEPFSEKSVPLCILYEKYRDCLTESNLIKVRALLVEPVINSYLLAERDLYLENPEIKIRILGEPKQKRKLVAEVSLQNPLPVALEGCTFTVEGAGLTEEQKTVEIPDPVEAGEEVKVRMDLLPLHMGLHKLVVNFESDKLKAVKGFRNVIIGPA
In the case of B1, the binding result in test [1] and in test [2] was “binds” each time.

B2: Inactive, inhibitor-bound TG2 produced in E. coli (TG2-DP3-3) (enzyme, UniProt P21980 1-687)
chain: MAEELVLERCDLELETNGRDHHTADLCREKLVVRRGQPFWLTLHFEGRNYEASVDSLTFSVVTGPAPSQEAGTKARFPLRDAVEEGDWTATVVDQQDCTLSLQLTTPANAPIGLYRLSLEASTGYQGSSFVLGHFILLFNAWCPADAVYLDSEEERQEYVLTQQGFIYQGSAKFIKNIPWNFGQFEDGILDICLILLDVNPKFLKNAGRDCSRRSSPVYVGRVVSGMVNCNDDQGVLLGRWDNNYGDGVSPMSWIGSVDILRRWKNHGCQRVKYGQCWVFAAVACTVLRCLGIPTRVVTNYNSAHDQNSNLLIEYFRNEFGEIQGDKSEMIWNFHCWVESWMTRPDLQPGYEGWQALDPTPQEKSEGTYCCGPVPVRAIKEGDLSTKYDAPFVFAEVNADVVDWIQQDDGSVHKSINRSLIVGLKISTKSVGRDEREDITHTYKYPEGSSEEREAFTRANHLNKLAEKEETGMAMRIRVGQSMNMGSDFDVFAHITNNTAEEYVCRLLLCARTVSYNGILGPECGTKYLLNLNLEPFSEKSVPLCILYEKYRDCLTESNLIKVRALLVEPVINSYLLAERDLYLENPEIKIRILGEPKQKRKLVAEVSLQNPLPVALEGCTFTVEGAGLTEEQKTVEIPDPVEAGEEVKVRMDLLPLHMGLHKLVVNFESDKLKAVKGFRNVIIGPA
modifications: active site covalently linked to the inhibitor Ac-P-DON-LPF-NH2 (DP3-3)
As for B2, the binding result in test [3] was “no binding (condition: with 1 mM EDTA (0.2 mg/ml))”.

The values are drawn from paper PMC4526674.
